Results taken from the supplement of paper PMC10369915.
The list shows a part of the results. Cut-off read from the data, not from the text of the source: active = 3.2 or more and inactive = the rest. Most of these values are background signal.

Experiments:
Assay in all cases: enrichment score (SH2-bound / input frequency) (ratio); bacterial display of known human phosphotyrosine sites (pTyr-Var adds point mutants) read by sequencing; higher = stronger binding; tyrosines were phosphorylated by kinases first
Details in all cases: peptide library: pTyr-Var
[1] = target: SHP2 C-SH2 domain E139D
[2] = target: SHP2 C-SH2 domain wild-type
[3] = target: SHP2 N-SH2 domain L43F
[4] = target: SHP2 N-SH2 domain T42A
[5] = target: SHP2 N-SH2 domain T52S
[6] = target: SHP2 N-SH2 domain wild-type

Measured: enrichment score
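Note: displayed peptides selected on beads carrying the immobilized SH2 domain, with library peptides lacking any tyrosine serving as negative controls.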

B1: SERPINA1_Y184 (peptide)
chain: KQINDYVEKGT
inactive: [1] 0.747 | [2] 0.556 | [3] 0.7 | [4] 0.624 | [5] 0.938 | [6] 0.853

B2: SEMA3F_Y478 (peptide)
chain: AADGRYEVLFL
inactive: [1] 0.636 | [2] 0.727 | [3] 0.745 | [4] 0.882 | [5] 0.423 | [6] 0.844

B3: SCN1A_Y1684_G1688W (peptide)
chain: LVMFIYAIFWM
inactive: [1] 1.84 | [2] 1.4 | [3] 1.51 | [4] 1.65 | [5] 2.38 | [6] 1.18

B4: SCAMP3_Y35 (peptide)
chain: RPSRQYATLDV
active: [4] 4.43
inactive: [1] 0.668 | [2] 2.34 | [3] 1.49 | [5] 1.78 | [6] 1.11

B5: SELENOK_Y52_R50S (peptide)
chain: KKRSSYGNSSD
inactive: [1] 0.311 | [2] 0.288 | [3] 0.302 | [4] 0.289 | [5] 0.283 | [6] 0.358

B6: SCN5A_Y694_R689C (peptide)
chain: CLAQRYLIWEC
inactive: [2] 3.01 | [4] 3.06 | [5] 2.68
active: [1] 3.25 | [3] 3.49 | [6] 3.83

B7: SCN5A_Y1494 (peptide)
chain: EEQKKYYNAMK
inactive: [1] 0.61 | [2] 0.594 | [3] 0.702 | [4] 0.686 | [5] 0.718 | [6] 0.561

B8: SEC22B_Y193_H190R (peptide)
chain: NMRSTYAKLAA
inactive: [1] 1.06 | [2] 2.56 | [3] 0.641 | [4] 2.01 | [5] 0.647 | [6] 0.78

B9: SENP1_Y349 (peptide)
chain: ELTSVYDSRAR
inactive: [1] 0.567 | [2] 0.569 | [3] 0.55 | [4] 0.567 | [5] 0.449 | [6] 0.527

B10: SEC24A_Y263_S261G (peptide)
chain: VVHGSYDEIEG
inactive: [1] 0.374 | [2] 0.517 | [3] 0.415 | [4] 0.766 | [5] 0.557 | [6] 0.485

B11: SCN1A_Y1926_I1922T (peptide)
chain: ITQRAYRRHLL
inactive: [1] 0.195 | [2] 0.252 | [3] 0.202 | [4] 0.313 | [5] 0.27 | [6] 0.262

B12: SCN5A_Y1494_E1489D_YF (peptide)
chain: DEQKKYFNAMK
inactive: [1] 0.671 | [2] 0.673 | [3] 0.727 | [4] 0.494 | [5] 0.626 | [6] 0.727

B13: SCN5A_Y1495_K1500N_YF (peptide)
chain: EQKKFYNAMKN
inactive: [1] 0.64 | [2] 0.696 | [3] 0.866 | [4] 0.693 | [5] 0.915 | [6] 0.661

B14: SCN2A_Y1919_R1918H (peptide)
chain: RAYRHYLLKQK
inactive: [1] 0.313 | [2] 0.274 | [3] 0.271 | [4] 0.286 | [5] 0.339 | [6] 0.212

B15: SCARB1_Y133 (peptide)
chain: GSESDYIVMPN
inactive: [1] 0.577 | [2] 0.502 | [3] 0.638 | [4] 0.5 | [5] 0.542 | [6] 0.594

B16: SEL1L3_Y399 (peptide)
chain: NDTAGYFIIGG
inactive: [1] 0.832 | [2] 0.801 | [3] 0.848 | [4] 1.02 | [5] 0.994 | [6] 1.03

B17: SBDS_Y128 (peptide)
chain: ETKRPYTVILI
inactive: [1] 0.79 | [2] 0.97 | [3] 0.93 | [4] 0.962 | [5] 0.844 | [6] 0.935

B18: SCN1A_Y1684_A1685V (peptide)
chain: LVMFIYVIFGM
inactive: [1] 0.817 | [2] 0.794 | [3] 0.998 | [4] 0.598 | [5] 1.07 | [6] 0.943

B19: SDAD1_Y580_S575C (peptide)
chain: CQKRKYIEIDS
inactive: [1] 0.804 | [2] 0.631 | [3] 1.02 | [4] 1.78 | [5] 1.06 | [6] 0.722

B20: SCLY_Y280 (peptide)
chain: EFTPLYPMLFG
inactive: [1] 1.07 | [2] 1.23 | [3] 0.983 | [4] 1.04 | [5] 1.07 | [6] 1.11

B21: SENP1_Y349_D350G (peptide)
chain: ELTSVYGSRAR
inactive: [1] 0.647 | [2] 0.708 | [3] 0.759 | [4] 0.781 | [5] 0.651 | [6] 0.676

B22: SCN5A_Y1494_K1493R_YF (peptide)
chain: EEQKRYFNAMK
inactive: [1] 0.58 | [2] 0.489 | [3] 0.555 | [4] 0.693 | [5] 0.801 | [6] 0.489

B23: SEC22B_Y110 (peptide)
chain: TVSRPYSFIEF
active: [2] 5.27 | [3] 4.82 | [4] 9.55 | [5] 4.92
inactive: [1] 2.51 | [6] 1.05

B24: SCN4A_Y1074 (peptide)
chain: DKVFTYIFIME
inactive: [1] 1.09 | [2] 1.08 | [3] 1.02 | [4] 0.841 | [5] 0.979 | [6] 1.5

B25: SCN5A_Y1495_K1500N (peptide)
chain: EQKKYYNAMKN
inactive: [1] 0.699 | [2] 0.678 | [3] 0.746 | [4] 0.717 | [5] 0.784 | [6] 0.698

B26: SDHA_Y629_Y629F (peptide)
chain: KHTLSFVDVGT
inactive: [1] 0.961 | [2] 0.732 | [3] 0.734 | [4] 0.582 | [5] 0.885 | [6] 1.04

B27: SEPSECS_Y334 (peptide)
chain: LGSNGYKKLLK
inactive: [1] 0.432 | [2] 0.371 | [3] 0.477 | [4] 0.463 | [5] 0.459 | [6] 0.548

B28: SDAD1_Y656_V660I (peptide)
chain: FMMMRYSQNIR
inactive: [1] 2.15 | [2] 1.7 | [3] 2.03 | [4] 1.89 | [5] 1.97 | [6] 1.78

B29: SCN5A_Y1495_Y1495S_YF (peptide)
chain: EQKKFSNAMKK
inactive: [1] 0.527 | [2] 0.521 | [3] 0.664 | [4] 1.06 | [5] 0.973 | [6] 0.724

B30: SERAC1_Y548_S543T (peptide)
chain: TVNIRYLLFPS
active: [1] 3.94 | [3] 3.42 | [5] 3.39
inactive: [2] 3 | [4] 2.94 | [6] 2.95

B31: SBDS_Y128_R126T (peptide)
chain: ETKTPYTVILI
inactive: [1] 0.498 | [2] 0.874 | [3] 0.527 | [4] 1.28 | [5] 0.605 | [6] 0.711

B32: SCN1A_Y1694_Y1694C (peptide)
chain: MSNFACVKREV
inactive: [1] 0.81 | [2] 0.668 | [3] 0.774 | [4] 0.707 | [5] 0.805 | [6] 0.759

B33: SCN1A_Y1684_I1683F (peptide)
chain: LVMFFYAIFGM
inactive: [1] 2.8 | [2] 2.19 | [3] 2.62 | [4] 2.19 | [5] 2.11 | [6] 1.84

B34: SCN1A_Y1926_R1928G (peptide)
chain: IIQRAYRGHLL
inactive: [1] 0.679 | [2] 0.578 | [3] 0.61 | [4] 0.458 | [5] 0.521 | [6] 0.624

B35: SCP2_Y151_A155D (peptide)
chain: LLINKYGLSDH
inactive: [1] 1.38 | [2] 1.1 | [3] 1.05 | [4] 1.53 | [5] 1.11 | [6] 1.19

B36: SCN5A_Y1495_Y1494N (peptide)
chain: EQKKNYNAMKK
inactive: [1] 1.18 | [2] 0.966 | [3] 0.902 | [4] 1.01 | [5] 1.23 | [6] 1.08

B37: SEPSECS_Y334_Y334C (peptide)
chain: LGSNGCKKLLK
inactive: [1] 0.65 | [2] 0.968 | [3] 0.762 | [4] 0.644 | [5] 0.615 | [6] 0.859
